Assay results taken from the supplement of paper PMC7826260.
This is one part of the list. Cleavage of a single-stranded DNA pool by Rep nickase domains was read by sequencing at 3 µM enzyme and 37 °C for 1 h; the strands have 90 letters, of which the middle is given. A value is the log2 ratio of uncut reads to the pool without enzyme; strong cutting gives strongly negative numbers. There is no active / inactive call. Reads are scaled to the total; uncut strands gain when others are lost, and binding without cutting may add a little.

What was measured:
Experiment in all cases: uncleaved DNA left, log2 of reads against the no-enzyme library (log2 ratio); higher = less cleavage (more negative = more Rep cleavage of the k-mer); sequences stand for … in CTCGTCCG…ACCGGAGA
[1] = system: T1, Rep nickase domain of Muscovy duck circovirus
T1 sequence (Rep 1-111, printed without the tag): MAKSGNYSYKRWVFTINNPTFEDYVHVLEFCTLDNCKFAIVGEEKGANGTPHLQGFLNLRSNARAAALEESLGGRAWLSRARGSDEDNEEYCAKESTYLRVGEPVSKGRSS
Experimental: (§1)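 A pool of 90-nt single-stranded DNAs with seven random bases just before the constant AC of the nick site (name = the seven bases) was cut by 3 µM recombinant His6-SUMO-tagged Rep nickase domain (300 nM DNA, 50 mM HEPES pH 8.0, 50 mM NaCl, 1 mM MnCl2, 1 h, 37 °C, three replicates). Uncut DNA was amplified and sequenced.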

[2] = system: T2, Rep nickase domain of banana bunchy top virus
T2 sequence (Rep 1-94, printed without the tag): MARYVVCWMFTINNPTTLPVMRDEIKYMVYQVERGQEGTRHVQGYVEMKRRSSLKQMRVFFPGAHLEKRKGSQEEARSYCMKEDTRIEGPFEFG
Experimental: as §1

[3] = system: T3, Rep nickase domain of cabbage leaf curl virus
T3 sequence (Rep 1-116, printed without the tag): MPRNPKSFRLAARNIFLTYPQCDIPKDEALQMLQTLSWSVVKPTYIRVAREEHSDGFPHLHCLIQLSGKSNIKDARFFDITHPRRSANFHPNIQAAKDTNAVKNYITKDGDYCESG
Experimental: as §1

[4] = system: T4, Rep nickase domain of chickpea chlorotic dwarf virus
T4 sequence (Rep 1-124, printed without the tag): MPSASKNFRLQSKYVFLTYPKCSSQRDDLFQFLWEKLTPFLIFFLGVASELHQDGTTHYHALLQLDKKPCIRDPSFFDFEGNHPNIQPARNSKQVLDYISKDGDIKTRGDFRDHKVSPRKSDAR
Experimental: as §1

[5] = system: T5, Rep nickase domain of faba bean necrotic yellows virus
T5 sequence (Rep 1-98, printed without the tag): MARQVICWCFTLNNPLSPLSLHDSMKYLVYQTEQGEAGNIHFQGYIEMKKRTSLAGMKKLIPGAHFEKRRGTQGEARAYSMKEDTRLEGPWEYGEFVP
Experimental: as §1

[6] = system: T6, Rep nickase domain of maize striate mosaic virus
T6 sequence (Rep 1-117, printed without the tag): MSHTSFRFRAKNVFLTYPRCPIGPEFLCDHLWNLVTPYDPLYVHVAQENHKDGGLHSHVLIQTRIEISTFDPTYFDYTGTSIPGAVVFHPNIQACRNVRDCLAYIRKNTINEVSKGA
Experimental: as §1

[7] = system: T7, Rep nickase domain of porcine circovirus 2
T7 sequence (Rep 2-116, printed without the tag): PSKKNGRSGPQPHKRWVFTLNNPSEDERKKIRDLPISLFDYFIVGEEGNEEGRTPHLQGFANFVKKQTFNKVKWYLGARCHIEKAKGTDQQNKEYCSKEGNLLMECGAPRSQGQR
Experimental: as §1

[8] = system: T8, Rep nickase domain of tomato yellow leaf curl virus
T8 sequence (Rep 1-136, printed without the tag): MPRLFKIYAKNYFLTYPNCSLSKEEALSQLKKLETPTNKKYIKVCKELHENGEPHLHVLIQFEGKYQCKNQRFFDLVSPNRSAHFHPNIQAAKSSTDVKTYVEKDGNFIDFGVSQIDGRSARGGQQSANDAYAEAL
Experimental: as §1

[9] = system: T9, Rep nickase domain of wheat dwarf virus
T9 sequence (Rep 1-137, printed without the tag): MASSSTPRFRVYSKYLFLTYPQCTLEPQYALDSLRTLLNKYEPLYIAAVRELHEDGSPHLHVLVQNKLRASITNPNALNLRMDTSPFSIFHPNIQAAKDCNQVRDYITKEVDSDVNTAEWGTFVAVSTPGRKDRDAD
Experimental: as §1

Row | Sequence | uncleaved DNA left (log2) [1] | uncleaved DNA left (log2) [2] | uncleaved DNA left (log2) [3] | uncleaved DNA left (log2) [4] | uncleaved DNA left (log2) [5] | uncleaved DNA left (log2) [6] | uncleaved DNA left (log2) [7] | uncleaved DNA left (log2) [8] | uncleaved DNA left (log2) [9]
1 | CTTGCCT | 0.0194 | -0.0916 | -0.465 | -1.51 | 0.0887 | -1.11 | -0.272 | 0.0949 | -0.0901
2 | GGGGGAA | 0.1 | 0.0725 | 0.89 | 2.01 | 0.0143 | 2.37 | 0.158 | 0.0767 | 0.157
3 | CGAAGTT | 0.0136 | 0.049 | -0.171 | -1.49 | 0.0611 | -0.364 | -0.21 | 0.0789 | -0.0893
4 | GAACGTA | 0.00478 | -0.0512 | 0.313 | -0.0449 | -0.0174 | 0.963 | 0.0156 | 0.106 | -0.00978
5 | GGATCCA | 0.0529 | 0.0632 | 0.429 | 0.955 | 0.0721 | 1.37 | 0.155 | 0.109 | 0.0957
6 | ACGTCGA | -0.0331 | -0.183 | -0.565 | -0.646 | 0.0616 | -1.03 | 0.0617 | -0.144 | -0.0805
7 | CCGCGTA | -0.176 | -0.069 | -0.482 | -0.495 | -0.022 | -0.672 | -0.0366 | -0.074 | -0.168
8 | ATGATGG | 0.102 | -0.0559 | -0.17 | 0.0717 | 0.0881 | -0.667 | 0.134 | -0.106 | -0.00868
9 | GTCCTCC | -0.0912 | 0.0394 | 0.316 | 0.76 | -0.0392 | 1.54 | -0.02 | -0.0724 | 0.0397
10 | CCCCTAC | -0.0883 | -0.117 | -0.247 | -1.84 | -0.0198 | -0.916 | -0.187 | -0.191 | -0.231
11 | CTGACGC | -0.0505 | -0.211 | -0.367 | -0.327 | -0.183 | -0.834 | 0.00796 | -0.104 | -0.0721
12 | GGCACCA | 0.0705 | 0.0937 | 0.617 | 1.2 | -0.0124 | 1.8 | 0.0991 | 0.0945 | 0.143
13 | GTAGACT | 0.0696 | 0.117 | 0.394 | 0.984 | -0.0188 | 1.92 | -0.0122 | 0.044 | 0.0563
14 | GTAGACG | 0.0528 | 0.0882 | -0.217 | -0.0523 | 0.121 | -0.33 | 0.0697 | 0.102 | 0.061
15 | AGTGTGT | 0.147 | -0.0063 | -0.11 | -0.202 | -0.0201 | -0.564 | -2.74 | 0.0323 | -0.00564
16 | AGATTTT | -3.58 | -0.228 | -0.38 | -2.21 | -0.084 | -0.258 | -3.79 | -0.0134 | -0.404
17 | GTGTCTC | -0.0138 | 0.0552 | 0.304 | 0.873 | -0.0262 | 1.86 | 0.121 | 0.0048 | 0.0618
18 | ACTCACC | -0.0614 | 0.0686 | -0.0874 | -0.285 | -0.0554 | -0.328 | 0.0406 | -0.0206 | -0.0287
19 | TCGAACT | -0.0456 | -0.0668 | -0.0146 | -2.05 | -0.0835 | -0.0435 | -0.534 | -0.00607 | 0.0696
20 | GCGATTG | -0.052 | 0.124 | 0.092 | 0.646 | 0.0179 | 1.62 | 0.111 | -0.023 | -0.000428
21 | CCGGGCT | 0.0413 | 0.0319 | 0.261 | 0.405 | -0.0354 | 0.851 | 0.08 | -0.0502 | -0.0993
22 | GGTCAGT | 0.116 | 0.22 | 0.822 | 1.84 | 0.0427 | 2.15 | 0.207 | 0.117 | 0.138
23 | CGCCGGA | -0.000673 | 0.0728 | 0.151 | 0.444 | 0.0336 | 0.128 | 0.0355 | -0.0409 | -0.0182
24 | CTACAGT | 0.054 | 0.0213 | -0.409 | -2.23 | 0.0866 | -0.931 | -0.11 | 0.0162 | -0.0747
25 | ACATGCG | -0.0852 | -0.0605 | 0.446 | 1.79 | -0.0271 | 2.13 | 0.0493 | -0.0209 | 0.0213
26 | ACCAACG | 0.086 | 0.0403 | -0.501 | 0.558 | -0.0207 | -0.281 | 0.267 | -0.0223 | -0.0238
27 | AATGTCG | 0.158 | 0.103 | -0.649 | 0.422 | 0.161 | -0.642 | 0.185 | 0.155 | 0.0258
28 | CGATAGA | 0.0728 | 0.0518 | -0.0384 | 0.232 | 0.127 | -0.205 | 0.0728 | 0.0264 | 0.0958
29 | CTCCGAG | 0.0748 | 0.116 | 0.82 | 1.72 | 0.0946 | 1.42 | 0.164 | 0.0514 | 0.264
30 | CTCTAAC | 0.0811 | 0.0473 | -0.281 | -1.73 | -0.00712 | -0.669 | 0.00964 | -0.0131 | -0.0192
